{"source": "paper PMC9911399", "about": "“Two distinct binding modes provide the RNA-binding protein RbFox with extraordinary sequence specificity”", "binders": {"B1": {"name": "GACAACA (DNA:RNA)", "RNA": "GGGAGACCGGAAUUCAGAUUGUCCGACAACAUUAAAUCCCGUCGUAGCCACCA", "DNA 1": "CAATCTGAATTCCGGTCTCCC", "DNA 2": "TGGTGGCTACGACGGGATT"}, "B2": {"name": "UUCUGUC (DNA:RNA)", "RNA": "B1 RNA with G25U, A26U, A28U, A29G, C30U, A31C", "DNA 1": "CAATCTGAATTCCGGTCTCCC", "DNA 2": "TGGTGGCTACGACGGGATT"}, "B3": {"name": "UUCCCUC (DNA:RNA)", "RNA": "B1 RNA with G25U, A26U, A28C, A29C, C30U, A31C", "DNA 1": "CAATCTGAATTCCGGTCTCCC", "DNA 2": "TGGTGGCTACGACGGGATT"}, "B4": {"name": "CGUCGCU (DNA:RNA)", "RNA": "B1 RNA with G25C, A26G, C27U, A28C, A29G, A31U", "DNA 1": "CAATCTGAATTCCGGTCTCCC", "DNA 2": "TGGTGGCTACGACGGGATT"}, "B5": {"name": "AGUUACA (DNA:RNA)", "RNA": "B1 RNA with G25A, A26G, C27U, A28U", "DNA 1": "CAATCTGAATTCCGGTCTCCC", "DNA 2": "TGGTGGCTACGACGGGATT"}, "B6": {"name": "GAAGCUU (DNA:RNA)", "RNA": "B1 RNA with C27A, A28G, A29C, C30U, A31U", "DNA 1": "CAATCTGAATTCCGGTCTCCC", "DNA 2": "TGGTGGCTACGACGGGATT"}, "B7": {"name": "GCCACGU (DNA:RNA)", "RNA": "B1 RNA with A26C, A29C, C30G, A31U", "DNA 1": "CAATCTGAATTCCGGTCTCCC", "DNA 2": "TGGTGGCTACGACGGGATT"}, "B8": {"name": "AAUCAUA (DNA:RNA)", "RNA": "B1 RNA with G25A, C27U, A28C, C30U", "DNA 1": "CAATCTGAATTCCGGTCTCCC", "DNA 2": "TGGTGGCTACGACGGGATT"}, "B9": {"name": "ACUAACC (DNA:RNA)", "RNA": "B1 RNA with G25A, A26C, C27U, A31C", "DNA 1": "CAATCTGAATTCCGGTCTCCC", "DNA 2": "TGGTGGCTACGACGGGATT"}, "B10": {"name": "UAUUUUA (DNA:RNA)", "RNA": "B1 RNA with G25U, C27U, A28U, A29U, C30U", "DNA 1": "CAATCTGAATTCCGGTCTCCC", "DNA 2": "TGGTGGCTACGACGGGATT"}, "B11": {"name": "GAGACGG (DNA:RNA)", "RNA": "B1 RNA with C27G, A29C, C30G, A31G", "DNA 1": "CAATCTGAATTCCGGTCTCCC", "DNA 2": "TGGTGGCTACGACGGGATT"}, "B12": {"name": "GCCGCGU (DNA:RNA)", "RNA": "B1 RNA with A26C, A28G, A29C, C30G, A31U", "DNA 1": "CAATCTGAATTCCGGTCTCCC", "DNA 2": "TGGTGGCTACGACGGGATT"}, "B13": {"name": "CAAUGAU (DNA:RNA)", "RNA": "B1 RNA with G25C, C27A, A28U, A29G, C30A, A31U", "DNA 1": "CAATCTGAATTCCGGTCTCCC", "DNA 2": "TGGTGGCTACGACGGGATT"}, "B14": {"name": "UUCCGAU (DNA:RNA)", "RNA": "B1 RNA with G25U, A26U, A28C, A29G, C30A, A31U", "DNA 1": "CAATCTGAATTCCGGTCTCCC", "DNA 2": "TGGTGGCTACGACGGGATT"}, "B15": {"name": "GUUGAUU (DNA:RNA)", "RNA": "B1 RNA with A26U, C27U, A28G, C30U, A31U", "DNA 1": "CAATCTGAATTCCGGTCTCCC", "DNA 2": "TGGTGGCTACGACGGGATT"}, "B16": {"name": "AUGGGAU (DNA:RNA)", "RNA": "GGGAGACCGGAAUUCAGAUUGUCCAUGGGAUUUAAAUCCCGUCGUAGCCACCA", "DNA 1": "CAATCTGAATTCCGGTCTCCC", "DNA 2": "TGGTGGCTACGACGGGATT"}, "B17": {"name": "UGCAUCG (DNA:RNA)", "RNA": "B1 RNA with G25U, A26G, A29U, A31G", "DNA 1": "CAATCTGAATTCCGGTCTCCC", "DNA 2": "TGGTGGCTACGACGGGATT"}, "B18": {"name": "UGCCGAG (DNA:RNA)", "RNA": "B16 RNA with A25U, U26G, G27C, G28C, U31G", "DNA 1": "CAATCTGAATTCCGGTCTCCC", "DNA 2": "TGGTGGCTACGACGGGATT"}, "B19": {"name": "AGAGAGU (DNA:RNA)", "RNA": "B16 RNA with U26G, G27A, G29A, A30G", "DNA 1": "CAATCTGAATTCCGGTCTCCC", "DNA 2": "TGGTGGCTACGACGGGATT"}, "B20": {"name": "AUUCGGC (DNA:RNA)", "RNA": "B16 RNA with G27U, G28C, A30G, U31C", "DNA 1": "CAATCTGAATTCCGGTCTCCC", "DNA 2": "TGGTGGCTACGACGGGATT"}, "B21": {"name": "ACGCUCA (DNA:RNA)", "RNA": "B16 RNA with U26C, G28C, G29U, A30C, U31A", "DNA 1": "CAATCTGAATTCCGGTCTCCC", "DNA 2": "TGGTGGCTACGACGGGATT"}, "B22": {"name": "UCCCGCC (DNA:RNA)", "RNA": "B1 RNA with G25U, A26C, A28C, A29G, A31C", "DNA 1": "CAATCTGAATTCCGGTCTCCC", "DNA 2": "TGGTGGCTACGACGGGATT"}, "B23": {"name": "AAUCAGU (DNA:RNA)", "RNA": "B16 RNA with U26A, G27U, G28C, G29A, A30G", "DNA 1": "CAATCTGAATTCCGGTCTCCC", "DNA 2": "TGGTGGCTACGACGGGATT"}, "B24": {"name": "GCUGUGU (DNA:RNA)", "RNA": "B16 RNA with A25G, U26C, G27U, G29U, A30G", "DNA 1": "CAATCTGAATTCCGGTCTCCC", "DNA 2": "TGGTGGCTACGACGGGATT"}, "B25": {"name": "CUCUAUC (DNA:RNA)", "RNA": "B1 RNA with G25C, A26U, A28U, C30U, A31C", "DNA 1": "CAATCTGAATTCCGGTCTCCC", "DNA 2": "TGGTGGCTACGACGGGATT"}, "B26": {"name": "UGUACCA (DNA:RNA)", "RNA": "B1 RNA with G25U, A26G, C27U, A29C", "DNA 1": "CAATCTGAATTCCGGTCTCCC", "DNA 2": "TGGTGGCTACGACGGGATT"}, "B27": {"name": "GGUUCCA (DNA:RNA)", "RNA": "B1 RNA with A26G, C27U, A28U, A29C", "DNA 1": "CAATCTGAATTCCGGTCTCCC", "DNA 2": "TGGTGGCTACGACGGGATT"}, "B28": {"name": "CCUGCGC (DNA:RNA)", "RNA": "B16 RNA with A25C, U26C, G27U, G29C, A30G, U31C", "DNA 1": "CAATCTGAATTCCGGTCTCCC", "DNA 2": "TGGTGGCTACGACGGGATT"}, "B29": {"name": "GAAUAUU (DNA:RNA)", "RNA": "B1 RNA with C27A, A28U, C30U, A31U", "DNA 1": "CAATCTGAATTCCGGTCTCCC", "DNA 2": "TGGTGGCTACGACGGGATT"}, "B30": {"name": "GUUAAGG (DNA:RNA)", "RNA": "B1 RNA with A26U, C27U, C30G, A31G", "DNA 1": "CAATCTGAATTCCGGTCTCCC", "DNA 2": "TGGTGGCTACGACGGGATT"}, "B31": {"name": "AGGUGUA (DNA:RNA)", "RNA": "B16 RNA with U26G, G28U, A30U, U31A", "DNA 1": "CAATCTGAATTCCGGTCTCCC", "DNA 2": "TGGTGGCTACGACGGGATT"}}, "note": "Positions count from the first letter of the chain named. Some of the results follow."}
{"target": "T1, RBFOX1 RRM RbFoxmut (Fox-RRM*) (Homo sapiens, UniProt Q9NWB1 109-208, R118D;E147R;N151S;E152T)", "T1 sequence": "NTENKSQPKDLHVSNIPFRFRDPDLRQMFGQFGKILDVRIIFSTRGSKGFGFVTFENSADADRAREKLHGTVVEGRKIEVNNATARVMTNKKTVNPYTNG", "assay": "EMSA; HiTS-Eq, 1 nM pool, 10 min; buffer printed only for the single-RNA assays: 10 mM Tris pH 7.5, 150 mM NaCl, 3.4 mM EDTA, 0.001% NP-40, 30 C", "details": "tags: His6 N-terminal (pET28a); label: 5' 32P", "summary_of_the_method": "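Relative association constants, normalised to the cognate motif, were derived by comparing read counts of each RNA species with those of the control reaction. The RNA sequenced was the free fraction, separated by 8% native PAGE after a 10 min equilibration in 50 µL of 1 nM 5′-radiolabelled RNA (7 randomized nucleotides) with increasing concentrations of purified wild-type or mutant RbFox RRM.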"}
{"binder": "B1", "binding signal": "0.0695 KA relative to UGCAUGU"}
{"binder": "B2", "binding signal": "0.197 KA relative to UGCAUGU"}
{"binder": "B3", "binding signal": "0.0688 KA relative to UGCAUGU"}
{"binder": "B4", "binding signal": "0.11 KA relative to UGCAUGU"}
{"binder": "B5", "binding signal": "0.095 KA relative to UGCAUGU"}
{"binder": "B6", "binding signal": "0.0705 KA relative to UGCAUGU"}
{"binder": "B7", "binding signal": "0.0977 KA relative to UGCAUGU"}
{"binder": "B8", "binding signal": "0.0759 KA relative to UGCAUGU"}
{"binder": "B9", "binding signal": "0.0911 KA relative to UGCAUGU"}
{"binder": "B10", "binding signal": "0.132 KA relative to UGCAUGU"}
{"binder": "B11", "binding signal": "0.0522 KA relative to UGCAUGU"}
{"binder": "B12", "binding signal": "0.13 KA relative to UGCAUGU"}
{"binder": "B13", "binding signal": "0.085 KA relative to UGCAUGU"}
{"binder": "B14", "binding signal": "0.0783 KA relative to UGCAUGU"}
{"binder": "B15", "binding signal": "0.124 KA relative to UGCAUGU"}
{"binder": "B16", "binding signal": "0.111 KA relative to UGCAUGU"}
{"binder": "B17", "binding signal": "0.922 KA relative to UGCAUGU"}
{"binder": "B18", "binding signal": "0.119 KA relative to UGCAUGU"}
{"binder": "B19", "binding signal": "0.114 KA relative to UGCAUGU"}
{"binder": "B20", "binding signal": "0.0996 KA relative to UGCAUGU"}
{"binder": "B21", "binding signal": "0.0846 KA relative to UGCAUGU"}
{"binder": "B22", "binding signal": "0.142 KA relative to UGCAUGU"}
{"binder": "B23", "binding signal": "0.0868 KA relative to UGCAUGU"}
{"binder": "B24", "binding signal": "0.166 KA relative to UGCAUGU"}
{"binder": "B25", "binding signal": "0.0763 KA relative to UGCAUGU"}
{"binder": "B26", "binding signal": "0.0987 KA relative to UGCAUGU"}
{"binder": "B27", "binding signal": "0.0899 KA relative to UGCAUGU"}
{"binder": "B28", "binding signal": "0.0946 KA relative to UGCAUGU"}
{"binder": "B29", "binding signal": "0.153 KA relative to UGCAUGU"}
{"binder": "B30", "binding signal": "0.0786 KA relative to UGCAUGU"}
{"binder": "B31", "binding signal": "0.193 KA relative to UGCAUGU"}
